The record followed here is PMC6919601, “Identification of Plasmodium dipeptidyl aminopeptidase allosteric inhibitors by high throughput screening” (PLoS ONE, 2019).

Several values for one entry are separate records, joined by “and”; a condition that tells them apart may be missing. Equal entries are not always repeated. Hit rate of the full screen: of about 110,000 compounds, about 230 (0.21%) showed an effect of 50% or more. Some of the results follow.
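Also: 30 min substrate incubation versus DMSO and 10 µM JCP410 controls.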

DPAP1, sequence (Q8IIJ9 whole entry, looked up): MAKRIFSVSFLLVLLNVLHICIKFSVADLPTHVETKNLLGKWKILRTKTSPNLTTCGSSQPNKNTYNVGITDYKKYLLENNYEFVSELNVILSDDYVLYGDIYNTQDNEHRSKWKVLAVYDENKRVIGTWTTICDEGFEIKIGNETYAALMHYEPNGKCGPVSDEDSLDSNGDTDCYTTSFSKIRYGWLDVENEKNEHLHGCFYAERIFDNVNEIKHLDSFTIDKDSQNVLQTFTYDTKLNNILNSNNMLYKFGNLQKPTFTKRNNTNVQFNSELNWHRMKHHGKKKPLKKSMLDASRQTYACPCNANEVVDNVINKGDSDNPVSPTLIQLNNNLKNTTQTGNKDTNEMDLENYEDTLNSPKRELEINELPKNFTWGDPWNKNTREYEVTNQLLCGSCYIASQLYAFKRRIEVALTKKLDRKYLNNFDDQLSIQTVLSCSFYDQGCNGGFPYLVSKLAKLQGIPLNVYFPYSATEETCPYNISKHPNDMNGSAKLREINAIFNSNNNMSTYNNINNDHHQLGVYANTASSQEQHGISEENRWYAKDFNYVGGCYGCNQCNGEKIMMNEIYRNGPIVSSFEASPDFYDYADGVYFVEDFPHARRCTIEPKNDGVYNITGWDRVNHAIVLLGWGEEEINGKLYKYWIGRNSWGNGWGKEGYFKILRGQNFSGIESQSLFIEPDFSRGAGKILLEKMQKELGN

This assay has as its target DPAP1 (Plasmodium falciparum, UniProt Q8IIJ9). The experiment in a line: primary screen, percent inhibition; read by cleavage of a fluorogenic dipeptide substrate; higher = more effect of the substance. The arrangement: species or system P. falciparum D10 trophozoite lysates; single well.
As for `CC1=C(C(=O)NCc2ccccc2)C(c2ccc(F)cc2)NC(S)=N1` (stereo not drawn), the “% Inhibition @ 10 uM” value is reported as -1.24%. As to `CCN(CC)CCn1c(NCc2ccccc2OC)nc2ccccc21`, the “% Inhibition @ 10 uM” value was -2.91%. Then `COc1ccc(-c2cc(C(F)F)n3ncc(C(=O)NCCc4ccccc4OC)c3n2)cc1`, with -0.0619%. In the case of `CC1CC(=O)C2=C(C1)OC(N)=C(C#N)C2c1ccc2ccccc2c1` (stereo not drawn), the “% Inhibition @ 10 uM” value is listed as -3.79%. Then `CCN(CC)CCNC(=O)CCc1c(C)nc2cc(-c3ccc(OC)cc3OC)nn2c1C`, with -2.25%. For `CSc1ccc(C2Nc3ccc4ccccc4c3C3=C2C(=O)CC(C)(C)C3)cc1` (stereo not drawn) the value was 2%; for `CCOc1ccc(/C=C2\SC(N3CCN(C)CC3)=NC2=O)cc1`, -5.85%; for `CNC(=O)C(=O)Nc1ccc(OC)c(OC)c1`, -0.414%. Turning to `O=C(c1cc(-c2ccccc2)[nH]n1)N1CC=C(c2ccccc2)CC1`, the “% Inhibition @ 10 uM” value worked out at 3.3%. In the case of `O=C(NCc1ccccc1Cl)C1CCN(C(=O)c2sccc2-n2cccc2)CC1`, the “% Inhibition @ 10 uM” value is listed as 1.72%. For `CCOC(=O)C1=C(CNCCc2ccc(OC)cc2)NC(=O)NC1c1cc(C)ccc1C` (stereo not drawn) the value was -3.76%; for `CN(C)CCN(C(=O)c1ccco1)c1nc2ccc(F)cc2s1`, 0.174%; for `COc1ccc(CCNC(=O)C(C)n2ccc3cc(S(=O)(=O)N4CCCC4)ccc32)cc1OC` (stereo not drawn), 5.14%. For `COc1cc2c(cc1OC)C1C(C(=O)NCCC3=CCCCC3)c3ccccc3C(=O)N1CC2` (stereo not drawn) the value was 5.19%; for `CCc1ccccc1N(CC(=O)Nc1ccc(OC)cc1OC)S(C)(=O)=O`, 2.02%; for `COc1ccccc1C(=O)Nc1cccnc1`, -1.96%. `Cc1ccc(-n2nc3c(=O)n(CCCC(=O)NCCN4CCN(C)CC4)nc(C)c3c2C)cc1`: the “% Inhibition @ 10 uM” value was -2.68%.

Consider `CC(NS(=O)(=O)c1ccc(F)cc1)c1ccccc1` (stereo not drawn), for which the “% Inhibition @ 10 uM” value is recorded as -8.01%. As for `CCC(C)Oc1ccc(C2CC(=O)NC3=C2C(=O)CC(C)(C)C3)cc1` (stereo not drawn), the “% Inhibition @ 10 uM” value was -3.51%. Then `Cc1ccc(N(Cc2ccc(C(=O)Nc3ccccc3)cc2)S(C)(=O)=O)cc1C`, with 3.17%; and `O=C(CSc1ncnc2scc(-c3ccccc3)c12)N1CCCCCC1`, with 5.61%; and `CC1CCN(C(=O)c2nn3c(c2Cl)NC(c2ccco2)CC3C(F)(F)F)CC1` (stereo not drawn), with -0.996%. `O=C(/C=C/c1ccco1)N(Cc1ccccc1F)C1CCS(=O)(=O)C1` (stereo not drawn): the “% Inhibition @ 10 uM” value is on record as 3.62%. Consider `COc1ccc(NC(=O)COc2ccc(C)cc2)cc1`, for which the “% Inhibition @ 10 uM” value is recorded as -3.92%. As for `C=CCOc1ccc(C(=O)C2=C(O)C(=O)N(CCN(C)C)C2c2ccc(OC)c(OC)c2)cc1C` (stereo not drawn), the “% Inhibition @ 10 uM” value is 3.15%. In the case of `COc1ccc(C(=O)Nc2nc3c(s2)CCCC3)c(OC)c1OC`, the “% Inhibition @ 10 uM” value is recorded as 5.55%. For `C=CCN(CC#CC(O)(c1ccccc1)c1ccccc1)CC=C` the value was -1.99%. As for `CCN(CC)CCCNCc1ccc(OC(C)C)c(OC)c1`, the “% Inhibition @ 10 uM” value is -4.97%. As to `COc1ccc(Br)cc1C(=O)Nc1ccc(CN2CCOCC2)cc1`, the “% Inhibition @ 10 uM” value was -6.43%. Then `O=C(n1nnc2cc(Cl)c(Cl)cc21)C(F)(F)F`, with -1.29%; and `Cc1nn(-c2cccc(F)c2)c2c1c(C(F)(F)F)cc(=O)n2CC(=O)NCc1ccco1`, with -3.04%. For the compound `Cc1cc2c(cc1C)C(=O)NC(C)(C)C2`, the “% Inhibition @ 10 uM” value was determined as 0.162%. For `COc1ccc(NC(=O)CCN2CCN(c3ccccc3)CC2)cc1` the value was -4.21%; for `COc1ccc(-c2cn3c(n2)sc2cc(C(=O)N4CCCC(C)C4)ccc23)cc1` (stereo not drawn), 1.52%; for `COc1ccc2c(c1)c1c(c(=O)n(Cc3ccccc3)c(=O)n1Cc1cc(=O)n3ccccc3n1)n2C`, -0.742%.

Regarding `CCOC(=O)C1=C(C)N(C)C(=O)NC1c1ccccc1O` (stereo not drawn), the “% Inhibition @ 10 uM” value is given as -8.17%.

Turning to `Cc1ccc(NC(=O)c2c(-c3c(F)cccc3Cl)noc2C)nc1`, the “% Inhibition @ 10 uM” value is -0.999%.

For `O=C(NCc1ccco1)C1CCN(c2nn3cc(-c4ccc(F)cc4)nc3s2)CC1`, the “% Inhibition @ 10 uM” value amounted to 0.0322%. Consider `O=c1cc(-c2ccccc2)c2cc(Cl)c(OCc3ccc(F)cc3)cc2o1`, for which the “% Inhibition @ 10 uM” value is reported as -0.267%. Take `CC(C)c1ccc(C2NCCc3[nH]cnc32)cc1` (stereo not drawn): the “% Inhibition @ 10 uM” value is 0.774%. For `O=C(c1ccc(CNS(=O)(=O)c2cccc(Cl)c2)cc1)N1CCN(c2ccccc2)CC1`, the “% Inhibition @ 10 uM” value is on record as 5.92%. As for `CCCn1c(=O)c2sccc2n2c(CCCC(=O)NCC3CCCO3)nnc12` (stereo not drawn), the “% Inhibition @ 10 uM” value is reported as -2.15%. `O=C(NCc1ccncc1)c1ccc2nc(/C=C(\O)c3ccc(Cl)cc3)c(O)nc2c1`: the “% Inhibition @ 10 uM” value is -7.91%. With `CCN(CC)S(=O)(=O)c1csc(C(=O)OCC(=O)c2ccccc2)c1`, the “% Inhibition @ 10 uM” value was -6.17%.

With `COc1ccc(OC)c(S(=O)(=O)NCc2ccccc2OC)c1`, the “% Inhibition @ 10 uM” value is on record as -7.01%. With `CCN(CC)CCNC(=O)Cn1cnc2sc(C)c(S(=O)(=O)N3CC(C)CC(C)C3)c2c1=O` (stereo not drawn), the “% Inhibition @ 10 uM” value is reported as 0.813%. On to `CC1=NN(c2nc3ccccc3s2)C(=O)C1`, for which the “% Inhibition @ 10 uM” value worked out at 0.968%.

Turning to `CC1CCCCC1NC(=O)Cn1ccc2cc(S(=O)(=O)N3CCCC3)ccc21` (stereo not drawn), the “% Inhibition @ 10 uM” value is -5.04%. `CCOc1ccc(S(=O)(=O)Nc2cccc(-c3cn4ccsc4n3)c2)cc1`: the “% Inhibition @ 10 uM” value is 1.37%.

Turning to `CCC(Oc1ccccc1)C(=O)Nc1ccc(F)cc1` (stereo not drawn), the “% Inhibition @ 10 uM” value stood at 1.13%. With `C=CCNC(=O)C(=O)Nc1ccc(Br)cc1`, the “% Inhibition @ 10 uM” value came out at 2.94%. Regarding `Cc1ccc(C(=O)N2CCc3ccccc3C2)cc1[N+](=O)[O-]`, the “% Inhibition @ 10 uM” value is -6.27%. For the compound `Clc1ccc(-n2ncnc2-c2ccncc2)cc1`, the “% Inhibition @ 10 uM” value was -1.56%. Take `COc1cccc(NC(=O)Nc2ccc3c(c2)nc(C)n3C)c1`: the “% Inhibition @ 10 uM” value is reported as 7.98%. For `COc1ccc(C(=O)CSc2nc3nc(C)cc(C)n3n2)cc1OC` the value was -1.11%. Then `O=C(Cc1cccc2ccccc12)NCc1ccc(F)cc1`, with -1.46%; and `CC(=O)c1c(O)cc(C(C)C)n(-c2ccccc2)c1=O`, with 4.7%.

Take `Cc1ccc(-n2ccc(N)cc2=O)cc1`: the “% Inhibition @ 10 uM” value stood at 1.24%.

Regarding `Cc1cccc(OC(C)C(=O)NCc2ccc(F)cc2)c1` (stereo not drawn), the “% Inhibition @ 10 uM” value was -3.77% and -1.51%. Take `COc1ccc(NC(=O)c2ccc(C(C)(C)C)cc2)c(OC)c1`: the “% Inhibition @ 10 uM” value is -3.24%. For `CC(=O)/C(Sc1nnc(-c2ccccc2Cl)n1-c1ccccc1)=C(/C)O`, the “% Inhibition @ 10 uM” value is -0.597%. For `CCOC(=O)c1c(C)nc2sccn12` the value was 5.16%. As to `Fc1ccccc1OCCN1CCCC1`, the “% Inhibition @ 10 uM” value is -2.91%. Turning to `CCO/C(O)=C1/C(C)=NC2=C(C(=O)CCC2)C1c1ccc(SC)cc1` (stereo not drawn), the “% Inhibition @ 10 uM” value was -3.09%. In the case of `O=C(O)c1cc(-c2ccc3c(c2)OCCO3)nc2ccc(Br)cc12`, the “% Inhibition @ 10 uM” value is on record as -9.93%. With `CCOC(=O)c1c(NC(=O)C2CCCCC2)sc(C(=O)NC2CCCCC2)c1C`, the “% Inhibition @ 10 uM” value was 5.44%. On to `C=CCNC(=O)CCCc1nc(-c2ccccc2Cl)no1`, for which the “% Inhibition @ 10 uM” value was 2.01%.

As to `Cn1c(=O)[nH]c(=O)c2c1ncn2Cc1ccccc1F`, the “% Inhibition @ 10 uM” value is -2.84%. Regarding `CCC(C)(C(=O)NC1CCCC1)N(CC1CCCO1)C(=O)CNC(=O)c1ccccc1` (stereo not drawn), the “% Inhibition @ 10 uM” value came out at 7.29%.

As for `COc1ccccc1CNC(=O)[C@H](Cc1ccccc1)N1Cc2ccccc2C1=O`, the “% Inhibition @ 10 uM” value is 4.54%.

As for `COc1cc(C(=O)NCc2nc3ccccc3n2CC(C)C)cc(OC)c1OC`, the “% Inhibition @ 10 uM” value came to 0.505%. For `CCCN1CCN(C(=O)c2oc3ccc(S(=O)(=O)N4CCOCC4)cc3c2C)CC1` the value was -4.06%. With `O=C(Nc1c(O)c2ccccc2oc1=O)c1ccccc1F`, the “% Inhibition @ 10 uM” value is recorded as 6.77%. On to `CN(Cc1ccccc1)S(=O)(=O)c1ccc(N)cc1`, for which the “% Inhibition @ 10 uM” value turned out to be 0.475%. `Cc1ccc(-c2csc(-c3ccccn3)n2)cc1`: the “% Inhibition @ 10 uM” value was 1%. With `Cn1cnc2c(=O)oc3ccc(S(=O)(=O)N4CCCCC4c4cccnc4)cc3c21` (stereo not drawn), the “% Inhibition @ 10 uM” value was -6.31%.

Turning to `CCOC(=O)N1CCN(C(=O)c2cc3cc(OC)ccc3oc2=O)CC1`, the “% Inhibition @ 10 uM” value is given as 2.26%. In the case of `COc1ccc2c(c1)CCC/C2=C\CN1C(=O)c2ccccc2C1O` (stereo not drawn), the “% Inhibition @ 10 uM” value was -0.496%. As for `CC(O)CNc1cnc(O)nc1O` (stereo not drawn), the “% Inhibition @ 10 uM” value was -1.68%. Then `Cc1ccc(C)c(Cc2c(C)nc3c(C(=O)NCc4ccc(F)cc4)cnn3c2C)c1`, with 2.9%; and `COc1ccc(-c2nc(CSCC(=O)NCCCN3CCCC3=O)c(C)o2)cc1`, with -2.85%. `Cc1ccnc(NS(=O)(=O)c2c(C(C)C)cc(C(C)C)cc2C(C)C)c1`: the “% Inhibition @ 10 uM” value was found to be 0.00784%. Take `Cc1ccccc1Cn1nc(C)c(NC(=O)C2=CC(c3cccs3)=NS(=O)(=O)N2C)c1C`: the “% Inhibition @ 10 uM” value amounted to 0.655%. Turning to `CCOCCCNC(=O)C1C2C(=O)N(Cc3ccccc3)CC23C=CC1(C)O3` (stereo not drawn), the “% Inhibition @ 10 uM” value was -7.73%. Then `COc1ccc(Br)cc1/C=c1\sc2nc(-c3ccc(OC)c(OC)c3)nn2c1=O`, with -4.85%.

In the case of `O=C(O)CNC(=O)/C(=C/c1ccc2c(c1)OCO2)NC(=O)c1cccc(Br)c1`, the “% Inhibition @ 10 uM” value was -0.941%. As to `COc1ccc(CNC(=O)CN(c2ccc(F)cc2)S(=O)(=O)c2ccc3c(c2)OCCO3)cc1`, the “% Inhibition @ 10 uM” value amounted to 3.49%.

On to `CCN1C(=O)CC(C(=O)Nc2ccc(OC)cc2)S/C1=N\c1ccc(F)cc1` (stereo not drawn), for which the “% Inhibition @ 10 uM” value was found to be 0.324%. For `CCC(CC)N1CCN(S(=O)(=O)c2ccc(OC)cc2)CC1` the value was -3.34%; for `Cc1cccc(C)c1N(CC(=O)NCC1CCCO1)S(C)(=O)=O` (stereo not drawn), -1.11%. For `Cc1ccccc1OC(C)C(=O)Nc1ccccc1O` (stereo not drawn) the value was 0.795%; for `O=c1c(-c2ccc3c(c2)OCCO3)coc2c(CN3CCCCCC3)c(O)ccc12`, -3.65%.

Regarding `COc1ccc(-c2c3c(=O)n(C)c(=O)n(C)c3cn2-c2cccc3ccccc23)cc1`, the “% Inhibition @ 10 uM” value is recorded as 2.95%. For `O=C1C2C3C=CC(C4CC34)C2C(=O)N1c1ccncc1` (stereo not drawn), the “% Inhibition @ 10 uM” value was -2.8%. `CCc1nn(CCCC(=O)NCCN2CCOCC2)c(=O)c2cc3occc3n12`: the “% Inhibition @ 10 uM” value was found to be 1.38%.

For `O=C(c1ccc(Br)cc1)n1nnc2ccccc21`, the “% Inhibition @ 10 uM” value is reported as -2.41%. Consider `O=C(COCc1cc(-c2ccc3c(c2)OCO3)on1)NCc1ccco1`, for which the “% Inhibition @ 10 uM” value is recorded as 0.822%. Then `CN1CCN(c2cc(-c3cccnc3)nc3ccccc23)CC1`, with -0.292%.

Turning to `CCOc1ccc(-c2ncccc2O)cc1`, the “% Inhibition @ 10 uM” value was -0.415%.
